Hit rate of the full screen: of about 1,900 compounds, about 40 (2%) showed an effect of 50% or more. Some of the results follow.

In this test the target is human SGLT1 (hSGLT1) (human, UniProt P13866). The test is described as follows: primary screen, percent of control activity; higher = less effect of the substance. The arrangement: single well. To be noted: 50 µM. Put shortly:
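Single-point screen at 50 µmol/L in CHO-hSGLT1 cells, with 160 µmol/L 1-NBD-glucose in glucose-free DMEM for 90 min at 37°C. Fluorescence from isopropanol extracts was calibrated, and CHO wild-type uptake was subtracted. Data are percent of uptake without compound.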
Consider `CC(N/C(=N/C#N)Nc1ccncc1)C(C)(C)C` (stereo not drawn), for which the “NORMALIZED SGLT1 ACTIVITY (%)” value was 150%.
Regarding `Cl.FC(F)(F)c1cccc(N2CCNCC2)c1`, the “NORMALIZED SGLT1 ACTIVITY (%)” value was 114%.
As to `O=C(O)c1cc(=O)c2ccccc2o1`, the “NORMALIZED SGLT1 ACTIVITY (%)” value is 87%.
The value for `C[C@H]1C[C@@H]2[C@H]([C@@H](O)C[C@@]3(C)[C@H]2CC[C@]3(O)C(=O)CO)[C@@]2(C)C=CC(=O)C=C12` was 138%; that for `CS(=O)(=O)CCCCN=C=S` was 243%; that for `CC(NC(C)(C)C)C(=O)c1cccc(Cl)c1.Cl` (stereo not drawn) was 103%.
With `O=C([O-])CCC(=O)OC[C@@H](NC(=O)C(Cl)Cl)[C@H](O)c1ccc([N+](=O)[O-])cc1.[Na+]`, the “NORMALIZED SGLT1 ACTIVITY (%)” value is listed as 94%.
In the case of `CCCN(CCC)S(=O)(=O)c1ccc(C(=O)O)cc1` it was 105%; in that of `N[C@@H](C(=O)O)[C@@H](O)[C@H](O)[C@H](O)CO`, 89%.
In the case of `COc1cc([C@@H]2c3cc4c(cc3[C@@H](O[C@@H]3O[C@@H]5CO[C@@H](C)O[C@H]5[C@H](O)[C@H]3O)[C@H]3COC(=O)[C@H]23)OCO4)cc(OC)c1O` it was 139%; in that of `C[N+]1(C)[C@@H]2C[C@@H](OC(=O)[C@H](CO)c3ccccc3)C[C@H]1[C@@H]1O[C@@H]12.[Br-]`, 103%.
For `Cc1ccc(O)cc1`, the “NORMALIZED SGLT1 ACTIVITY (%)” value worked out at 104%.
The value for `CCOC(=O)C1=C[C@]2(CC)CCCN3CCc4c(n1c1ccccc41)[C@@H]32` was 90%; that for `CN/C(=C\[N+](=O)[O-])NCCSCc1ccc(CN(C)C)o1.Cl` was 106%; that for `Cl.N=c1ccn2c(n1)O[C@@H]1[C@@H](O)[C@H](CO)O[C@@H]12` was 94%.
The value for `CO[C@@H]1[C@@H](OC(N)=O)[C@@H](O)[C@H](Oc2ccc3c([O-])c(NC(=O)c4ccc(O)c(CC=C(C)C)c4)c(=O)oc3c2C)OC1(C)C.[Na+]` was 109%; that for `O=C(O)c1cc(O)c2ccccc2n1` was 97%; that for `COc1ccc(-c2cc(=O)c3c(O)c(OC)c(OC)cc3o2)cc1O` was 91%.
The value for `O=[N+]([O-])c1ccc(O)c([N+](=O)[O-])c1` was 145%.
With `NC(=O)CS(=O)C(c1ccccc1)c1ccccc1` (stereo not drawn), the “NORMALIZED SGLT1 ACTIVITY (%)” value amounted to 89%.
With `CCC(=O)O[C@]1(C(=O)CCl)[C@@H](C)C[C@H]2[C@@H]3CCC4=CC(=O)C=C[C@]4(C)[C@@]3(F)[C@@H](O)C[C@@]21C`, the “NORMALIZED SGLT1 ACTIVITY (%)” value came to 213%.
In the case of `CC(=O)C1CCC2C3CCC4C[C@H](O)CCC4(C)C3C[C@H](O)C12C` (stereo partly drawn) it was 123%; in that of `ClC1=C(Cl)C2(Cl)C3C4C=CC(C4)C3C1(Cl)C2(Cl)Cl` (stereo not drawn), 96%; in that of `COc1ccc(C[C@H]2NC[C@H](O)[C@H]2OC(C)=O)cc1`, 143%.
The value for `O=C1CN(/N=C/c2ccc([N+](=O)[O-])o2)C(=O)N1` was 159%; that for `CCC(=O)O[C@H]1[C@H](O[C@@H]2[C@@H](C)[C@H](O[C@H]3C[C@@](C)(OC)[C@@H](O)[C@H](C)O3)[C@@H](C)C(=O)O[C@H](CC)[C@@](C)(O)[C@H](O)[C@@H](C)C(=O)[C@H](C)C[C@@]2(C)O)O[C@H](C)C[C@@H]1N(C)C.CCCCCCCCCCCCOS(=O)(=O)O` was 143%; that for `CCc1cccc(CC)c1N(COC)C(=O)CCl` was 88%.
Consider `CC12CCC(=O)C=C1CCC1C2[C@@H](O)CC2(C)C1CC[C@]2(O)C(=O)COP(=O)([O-])[O-].CC[NH+](CC)CC.CC[NH+](CC)CC` (stereo partly drawn), for which the “NORMALIZED SGLT1 ACTIVITY (%)” value amounted to 125%.
In the case of `CCOC(=O)C(Cc1ccc(O)cc1)NC(C)=O` (stereo not drawn) it was 138%; in that of `CCCCCC(=O)Cc1cc(O)cc(O)c1C(=O)Oc1cc(CC(=O)CCCCC)c(C(=O)O)c(OC)c1`, 215%.
On to `COc1cc2c(cc1OC)-c1c(oc3c4c(ccc3c1=O)OC(C(C)C)C4)CO2` (stereo not drawn), for which the “NORMALIZED SGLT1 ACTIVITY (%)” value was determined as 120%.
In the case of `CCOP(=S)(OCC)SCCSCC` it was 77%.
In the case of `COc1ccc2ccc(=O)oc2c1`, the “NORMALIZED SGLT1 ACTIVITY (%)” value came out at 130%.
On to `C=CCc1ccc2c(c1)OCO2`, for which the “NORMALIZED SGLT1 ACTIVITY (%)” value is on record as 105%.
For the compound `CC(=O)O[C@H]1CC[C@@]2(C)[C@@H](CC[C@@H]3[C@@H]2CC(=O)[C@]2(C)[C@@H]4[C@H](C[C@@H]32)O[C@]2(CC[C@@H](C)CO2)[C@H]4C)C1`, the “NORMALIZED SGLT1 ACTIVITY (%)” value amounted to 116%.
Consider `CCOC(=O)C1=C(C)NC(C)=C(C(=O)OC)C1c1cccc([N+](=O)[O-])c1` (stereo not drawn), for which the “NORMALIZED SGLT1 ACTIVITY (%)” value is reported as 112%.
Consider `COc1ccc(Cc2nccc3cc(OC)c(OC)cc23)cc1OC.Cl`, for which the “NORMALIZED SGLT1 ACTIVITY (%)” value was 312%.
The value for `NCC[C@H](O)C(=O)N[C@@H]1C[C@H](N)[C@@H](O[C@H]2O[C@H](CN)[C@@H](O)[C@H](O)[C@H]2O)[C@H](O)[C@H]1O[C@H]1O[C@H](CO)[C@@H](O)[C@H](N)[C@H]1O.O=S(=O)(O)O.O=S(=O)(O)O` was 80%.
On to `CCC1(c2ccc(N)cc2)CCC(=O)NC1=O` (stereo not drawn), for which the “NORMALIZED SGLT1 ACTIVITY (%)” value is 108%.
In the case of `COc1c(-c2coc3cc4c(cc3c2=O)CC(O)C(C)(C)O4)ccc2c1C=CC(C)(C)O2` (stereo not drawn) it was 280%; in that of `C1CNCCN1`, 132%; in that of `NC(Cn1ccc(=O)c(O)c1)C(=O)O` (stereo not drawn), 110%.
The value for `C[C@@H]1O[C@@H](OC[C@H]2OC(Oc3c(-c4ccc(O)c(O)c4)oc4cc(O)cc(O)c4c3=O)[C@H](O)[C@@H](O)[C@@H]2O)[C@H](O)[C@H](O)[C@H]1O` (stereo partly drawn) was 104%; that for `Cc1cc(=O)n(-c2ccccc2)n1C` was 118%; that for `C=C1C(C2(C)C=CC(=O)C(C)(C)C2CC(=O)OC)CC[C@@]2(C)[C@H](c3ccoc3)OC(=O)C3OC132` (stereo partly drawn) was 86%.
Consider `CC[C@H](C)C(=O)O[C@H]1CCC=C2C=C[C@H](C)[C@H](CC[C@@H]3C[C@@H](O)CC(=O)O3)[C@H]21`, for which the “NORMALIZED SGLT1 ACTIVITY (%)” value stood at 109%.
For `COc1c(CC(=O)c2cc3c(cc2O)OC(C)(C)C(O)C3)ccc2c1C=CC(C)(C)O2` (stereo not drawn), the “NORMALIZED SGLT1 ACTIVITY (%)” value is reported as 333%.
In the case of `CC1(C)CC2C1CCC1(C)OC1CCC2(C)O` (stereo not drawn) it was 128%; in that of `CC(=O)C1CC[C@H]2C3CC[C@H]4C[C@H](O)CC[C@]4(C)C3CC[C@]12C` (stereo partly drawn), 107%.
As to `NCC(O)CC(=O)O` (stereo not drawn), the “NORMALIZED SGLT1 ACTIVITY (%)” value was 105%.
Take `O=C1c2ccccc2C(=O)c2c1ccc(O)c2O`: the “NORMALIZED SGLT1 ACTIVITY (%)” value was 164%.
Consider `COC(=O)C[C@H]1C(C)(C)C(=O)[C@@H]2CC3=C4CC(=O)O[C@@H](c5ccoc5)[C@]4(C)CCC3[C@@]1(C)C2=O` (stereo partly drawn), for which the “NORMALIZED SGLT1 ACTIVITY (%)” value was 117%.
In the case of `CN(C)CCCN1c2ccccc2Sc2ccc(C(F)(F)F)cc21.Cl` it was 62%; in that of `COc1cc2c(c(OC)c1OC)-c1ccc(OC)c(=O)cc1[C@@H](NC(C)=O)CC2`, 104%.
